Experimental data taken from the supplement of paper PMC3334620.
The full ranking holds about 33,000 sequences; the median of “E-score (-0.5 to 0.5)” is about -0.036, and the highest 2% start at about 0.37. This is one part of the list.

Each sequence was assayed against T1, Yer064c (UniProt P40041) (assay: PBM E-score (8-mer binding enrichment) (E-score (-0.5 to 0.5)); higher = stronger / more preferred TF binding; most listed sequences are background and not binding sites). Conditions: protein concentration: 200 nM; construct: GST-full length.
T1 sequence: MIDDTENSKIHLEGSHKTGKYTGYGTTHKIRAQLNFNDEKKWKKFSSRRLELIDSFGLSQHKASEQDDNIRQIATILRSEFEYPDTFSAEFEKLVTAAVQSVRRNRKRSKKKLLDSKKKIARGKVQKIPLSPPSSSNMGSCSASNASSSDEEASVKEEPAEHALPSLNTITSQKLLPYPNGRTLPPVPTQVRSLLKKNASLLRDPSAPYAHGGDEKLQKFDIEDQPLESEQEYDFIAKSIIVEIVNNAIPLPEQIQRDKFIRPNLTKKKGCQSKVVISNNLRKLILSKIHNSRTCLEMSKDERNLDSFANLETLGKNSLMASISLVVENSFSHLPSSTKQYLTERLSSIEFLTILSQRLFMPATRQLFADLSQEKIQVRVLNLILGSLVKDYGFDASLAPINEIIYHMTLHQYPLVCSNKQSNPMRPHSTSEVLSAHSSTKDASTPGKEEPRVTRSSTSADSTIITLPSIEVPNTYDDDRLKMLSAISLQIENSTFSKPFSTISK
Procedure, shortened: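 GST-tagged yeast TFs (full-length or DNA-binding domain) were made by PURExpress in vitro transcription/translation and applied at about 100-200 nM to universal all-10-mer Agilent arrays. The arrays were made double-stranded by primer extension, on fresh or once-stripped slides. Bound protein was detected with fluorescent anti-GST, and scans were normalised with masliner. Each ungapped eight-base word, pooled with its reverse complement, received an E-score (modified Wilcoxon-Mann-Whitney statistic) from the Universal PBM Analysis Suite.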

| Sequence | PBM E-score |
| --- | --- |
| AGGTGACC | 0.101 |
| CGAGCTGA | 0.129 |
| AGCAGCAT | -0.265 |
| ACTTTTGC | -0.0485 |
| ACCTGTTA | -0.0514 |
| CTCACCGA | 0.185 |
| GTACCTAC | -0.0236 |
| AGACTAGC | 0.251 |
| CTAGCGTA | -0.0869 |
| AAGTTGCT | -0.0746 |
| CGCACTGA | -0.0165 |
| ACAGGACA | 0.047 |
| ACCCGCCG | 0.104 |
| GCTAAGGA | -0.14 |
| CGACAGCG | -0.182 |
| TACGAATA | 0.107 |
| AGGCATTG | -0.171 |
| GGACACTA | -0.179 |
| ACACCCAA | -0.0135 |
| AGTATCGA | 0.118 |
| ACGATCTC | -0.116 |
| ATACGGAC | 0.0167 |

| Sequence | PBM E-score |
| --- | --- |
| AAGAAAAC | 0.00662 |
| ATATCGAA | 0.0673 |
| CCTGGTTC | -0.101 |
| CTATGTCC | -0.227 |
| AAGGTTCT | -0.118 |
| CAGAAATC | 0.0542 |
| CAGACGTC | -0.139 |
| CGCGAATA | 0.0375 |
| ACCCACAG | -0.0275 |
| CGATTTTA | -0.169 |
| CCGTGAAC | -0.0183 |
| ACGATTTC | -0.0265 |
| AGATCGAT | -0.00287 |
| AGAAAATC | 0.0604 |
| CAGCGGGA | -0.161 |
| AGTCTCTG | 0.31 |
| ATCAAGTC | 0.24 |
| ACACACCG | 0.0236 |
| AGGAAAAA | -0.0558 |
| ACCCTAAA | -0.052 |
| TATTAGAA | 0.103 |
| GCCGCAAA | -0.0538 |

| Sequence | PBM E-score |
| --- | --- |
| GTATACTA | -0.00368 |
| ACCATGGG | -0.154 |
| GCAGGTAC | -0.0611 |
| CCCATGGG | 0.203 |
| AGAAGCAT | -0.0539 |
| AATACCTA | -0.0132 |
| TCAAGAAA | 0.166 |
| CGTAATGC | -0.269 |
| ATGCTACC | -0.17 |
| CGCTACAG | -0.0846 |
| AAAGCGAT | 0.122 |
| TCCGGTAA | -0.0282 |
| GAGAAAAA | 0.0131 |
| CACCAAGG | -0.0597 |
| GGAAAAAA | -0.106 |
| CAAGACGC | -0.166 |
| ATTCGATA | -0.00674 |
| ATAGTTCA | 0.0794 |
| ATAATGCA | -0.151 |
| AATCCCGA | 0.0286 |
| ACATTTCA | -0.0918 |
| GCCGGAAC | -0.293 |

| Sequence | PBM E-score |
| --- | --- |
| AGTTGCAT | -0.2 |
| ACACCCGG | 0.00016 |
| CGTGGAAA | 0.031 |
| ACAGCAAA | 0.0558 |
| ACATACAT | 0.0185 |
| CTTGCTCA | -0.0925 |
| AGAGCATA | -0.29 |
| CGCAGCAC | 0.0869 |
| AATATGGG | 0.0903 |
| GCTCGGAC | -0.14 |
| ATTCTTGC | -0.0519 |
| CGTCTGCC | -0.356 |
| GTCCACAC | 0.0369 |
| CTGGAATA | 0.166 |
| GATATATC | -0.0148 |
| ACTGAGTA | 0.28 |
| AAGACCAG | -0.0791 |
| AACTACGC | 0.0819 |
| GAGCGCCA | -0.19 |
| CGTTTAGA | -0.0646 |
| CACCGCAG | -0.14 |
| ACGGCGCG | -0.125 |

| Sequence | PBM E-score |
| --- | --- |
| ACTCCATA | 0.206 |
| CGTCGACC | -0.101 |
| ATAGCCGC | 0.0267 |
| CACGTTGG | 0.016 |
| GTAGCAAC | -0.14 |
| AACAGGCA | -0.132 |
| CTTACACA | 0.177 |
| GTCACCCA | 0.185 |
| AATTTATC | 0.0881 |
| AGTAAAGA | 0.0497 |
| ACCTGGAC | -0.149 |
| AATCGGAG | 0.119 |
| CTAGATAC | 0.0027 |
| AAAACTAT | -0.0688 |
| CAAGACAA | -0.122 |
| GGGTGCCA | -0.148 |
| TGCTCCCA | -0.22 |
| AGCCACCG | 0.0452 |
| CTAGGTCC | -0.333 |
| GAACACCC | -0.127 |
| GCGACAGA | -0.228 |
| GCAGCTGA | 0.136 |
